Results published in PubChem BioAssay AID743279 (National Center for Advancing Translational Sciences (NCATS), 2014).
About 17,000 (4.7%) of roughly 360,000 compounds were called active. The shares of active, inactive and inconclusive entries below differ from those in the screen. Cut-off read from the data, not from the text of the source: active = activity change below about -50%; inconclusive = mostly about -30% to -49%; inactive = weaker than that.

Assay: qHTS for Inhibitors of Inflammasome Signaling: IL-1-beta AlphaLISA Primary Screen
Conditions: THP-1 LPS/ATP IL-1B secretion, 16 h, at 57.5 µM, active compounds read low
Outline: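 THP-1 cells pretreated 1 hr with compounds (up to 57.5 uM final), then stimulated with LPS (250 ng/mL final) plus ATP (1.25 mM final); secreted IL-1B measured by AlphaLISA after 16 hr, decreased signal indicating inhibition.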
% is set by controls: 0 for no effect and ±100 for the full control effect.

Compound	activity change
S=C1CN=C(c2ccccc2)c2cc(Cl)ccc2N1	inactive: 2.17%
C=C1C(=O)OC2C1CCC(C)C1(O)C=CC(=O)C21C (stereo unspecified)	active: -109%
Cc1nc2cc(C(F)(F)F)ccc2n1C1CCN(Cc2nnnn2Cc2cccs2)CC1	inconclusive: -48.4%
COc1ccc(CC2NCC(O)C2OC(C)=O)cc1 (stereo unspecified)	active: -109%
CN1[C@@H]2CC[C@H]1CC(OC(=O)C1C=Nc3ccccc31)C2 (stereo partly specified)	inconclusive: -32.3%
COC(=O)C1=C(c2ccc(F)cc2OCc2ccccc2)C[C@@H]2CC[C@H]1N2C(=O)NCc1ccc(OC)cc1	inconclusive: -37.9%
COC(=O)C1=C(c2ccc(F)cc2OCc2ccccc2)C[C@@H]2CC[C@H]1N2C(=O)NCCc1ccc(F)cc1	inconclusive: -30.8%
NC(=O)c1cn(C2CCCCC2)c2ccccc2c1=O	inactive: -18.5%
O=c1[nH]c(=O)n(-c2ccccc2Cl)c(O)c1C=NCCN1CCCCC1	inconclusive: -31.8%
C[n+]1c(-c2ccccc2)cc(-c2ccc(O)cc2)cc1-c1ccccc1	inconclusive: -49.9%
O=C1NC(=S)NC(=O)C1=Cc1ccc(Br)s1	active: -100%
CC(C)(C)n1nnnc1C(CCc1ccccc1)N1CCC(n2c(=O)[nH]c3ccccc32)CC1 (stereo unspecified)	inconclusive: -46.2%
O=C1NC(=O)C(=Cc2ccc(SC3CCCCC3)o2)C(=O)N1	inconclusive: -45.1%
c1cc2c(cc1[C@H]1OC[C@H]3[C@@H]1CO[C@H]3c1ccc3c(c1)OCO3)OCO2	inactive: -21.2%
O=C(C[N+]12CCN(CC1)CC2)NCCc1ccc(Cl)cc1Cl	inconclusive: -33.9%
CC1CCCC(NC(=O)COC(=O)c2cn(C)c3ccccc23)C1C (stereo unspecified)	inconclusive: -32.5%
CCCn1c(C(=O)c2ccc(OC)cc2)nc2ccccc21	inconclusive: -32%
COc1ccccc1-n1c(O)c(/C=N/NC(=S)Nc2ccccc2)c(=O)[nH]c1=S	inconclusive: -33.5%
CC(C)CN1Cc2cc(-c3ccccc3)ccc2-n2nncc2C1	inconclusive: -35.4%
Cc1ccccc1NC1=NCC(C)S1 (stereo unspecified)	inactive: 18%
CC(C)c1ccc(N2C(=O)NC(=O)/C(=C/C=C/c3ccco3)C2=O)cc1	inconclusive: -33.9%
O=C1NC(=O)N(Cc2ccccc2Cl)C(=O)/C1=C/c1cccs1	inconclusive: -36.4%

Compound	activity change
COC(COC(N)=O)C1=C(N2CC2)C(=O)C(C)=C(N2CC2)C1=O (stereo unspecified)	active: -113%
Cc1ccc(CN2Cc3ccc(Br)cc3-n3nncc3C2)cc1	inactive: -2.21%
CN(C)C(=O)Oc1ccc2c(=O)c(Oc3ccccc3Br)coc2c1	inconclusive: -32.2%
C=C1C(O)[C@@H]2O[C@]3(CC[C@H](/C=C/C(C)[C@@H]4CC(C)=CC5(O[C@H](C[C@@](C)(O)C(=O)O)CCC5O)O4)O3)CC[C@H]2O[C@@H]1C(O)CC(C)[C@H]1OC2(CCCCO2)CCC1C (stereo partly specified)	inconclusive: -48.2%
C[C@]12CC[C@H](OC(=O)CCC(=O)O)CC1=CCC1C2CC[C@@]2(C)C1CC[C@@H]2OC(=O)CCC(=O)O (stereo partly specified)	inactive: 15.5%
Nc1ccc(CCN2CCN(c3cccc(C(F)(F)F)c3)CC2)cc1	inactive: -9.85%
CCC(=NCCC(c1ccccc1)c1ccccc1)c1c(O)[nH]c(=O)[nH]c1=O	inconclusive: -32.4%
Cc1ccc(NC(=O)c2ccc(C)c(S(=O)(=O)N3CCCCC3)c2)nc1	inactive: -8.04%
CCSc1cc(C2C(C#N)=C(N)Oc3n[nH]c(C)c32)c(C)o1 (stereo unspecified)	active: -96.6%
COC(=O)C1=C(c2cccc(OCc3ccccc3)c2)C[C@@H]2CC[C@H]1N2C(=O)NCc1ccccc1C(F)(F)F	inactive: -11.2%
COc1cccc(NC(=O)N2CCC3(CC2)OCCO3)c1	inactive: 20.5%
Brc1ccc2c(c1)C(OC1CN3CCC1CC3)c1ccccc1CS2 (stereo unspecified)	active: -79.7%
COc1ccc(C2NCc3ccc4c(c3-n3cccc32)OCO4)cc1OC (stereo unspecified)	inconclusive: -39.6%
O=C1C2CCN(CC2)C1Cc1ccc(OCc2ccccc2)cc1 (stereo unspecified)	inconclusive: -44.4%
CC(NC1CCCCC1)C(O)C12CC3CC(CC(C3)C1)C2 (stereo unspecified)	active: -54.7%
c1ccc(N2[C@@H]3CC[C@H]2c2ccncc2C3)cc1	inconclusive: -39.1%
O=C(/C=C/c1ccc2c(c1)OCO2)c1c(O)n(CCc2ccccc2)c(=O)[nH]c1=O	inactive: -4.85%
Cc1cccc2c1N(N=O)CCC2	inactive: 8.23%
COc1ccc(CCC(C)NCCc2ccccc2)cc1 (stereo unspecified)	inconclusive: -36.9%
C[C@]12CCC3C(CC[C@H]4C[C@@H](O)[C@H](O)C[C@]34C)C1CC[C@@H]2O (stereo partly specified)	inactive: 17%
CC(C)CNC(=O)c1c(N)n(Cc2ccco2)c2nc3ccccc3nc12	active: -72.8%
CCOC(=O)c1c(-n2c(C)cc(C=C3C(=O)NC(=O)NC3=O)c2C)sc2c1CCCC2	inactive: -15.3%

Compound	activity change
O=C(c1ccc(N2CCCCCC2)c([N+](=O)[O-])c1)N1CCC2(CC1)OCCO2	inactive: -18%
COC(=O)CSC1=NP(=S)(SCC(=O)OC)N2CCCC2=C1C#N (stereo unspecified)	active: -94.3%
COc1ccc(C(=O)C2CN(C)CC2c2ccc(Cl)cc2)cc1 (stereo unspecified)	inconclusive: -41.6%
Cn1c(O)c(/C=C2/C=CC=N2)c(=O)[nH]c1=O	inconclusive: -36%
Fc1ccc(CNCCc2c[nH]c3ccccc23)cc1	active: -81.3%
Cc1cc(-c2ccccc2)cc(-c2ccccc2)[n+]1CCc1ccccc1	inconclusive: -37.1%
COC(=O)C1=C(c2ccc(F)cc2OCc2ccccc2)C[C@@H]2CC[C@H]1N2C(=O)NCc1ccc2c(c1)OCO2	inconclusive: -43.5%
Cc1ccsc1CNCCc1ccc(F)cc1	inconclusive: -48.6%
O=S1(=O)N(CCN2CC=C(c3c[nH]c4cc(F)ccc34)CC2)c2cccc3c2N1CCC3	active: -58.8%
COc1ccc(Br)cc1CNCCc1cccc(Cl)c1	active: -72.2%
O=C1NC(=O)N(c2ccc(F)cc2)C(=O)/C1=C/c1ccc2c(c1)CCCN2Cc1ccccc1	inconclusive: -44.6%
CC(C)C(=O)Nc1ccc(S(=O)(=O)N2CC3CC(C2)c2cccc(=O)n2C3)cc1 (stereo unspecified)	inactive: 0.0903%
Nc1c(C(=O)NCc2ccco2)c2nc3ccccc3nc2n1Cc1ccccc1	inconclusive: -39.1%
CCOc1cccc(CNCCc2c(C)[nH]c3ccc(OC(F)(F)F)cc23)c1O	active: -98.4%
CCN(CC)C(=O)c1ccc2c(c1)C1C(Cl)C(Sc3ccccc3[N+](=O)[O-])CC1C(C(=O)O)N2 (stereo unspecified)	inconclusive: -44.7%
CCOC(=O)C(O)(c1ccc(NC(=S)NC(=O)c2ccc(Cl)cc2Cl)c(C)c1)C(F)(F)F (stereo unspecified)	active: -54.4%
CC1CN=C(NCc2ccc(F)cc2)S1 (stereo unspecified)	inactive: -8.32%
CN1CCN(c2nc3ccccc3c(=O)n2-c2ccccc2)CC1	inactive: 33.3%
CCOC(=O)C1(CCOc2ccccc2)CCN(Cc2ccccc2OC)CC1	inconclusive: -36.1%
c1ccc2c(CNC3CCCCC3)c[nH]c2c1	inconclusive: -43.6%
Cc1ccc(-n2c(=S)[nH]c3ccccc3c2=O)cc1C	inconclusive: -36.9%
O=c1c2ccccc2nc(/C=C/c2ccc(O)cc2)n1-c1cccc(O)c1	inactive: 24.2%

Compound	activity change
COc1cccc(C(c2nnnn2C(C)(C)C)N2CCC3(CC2)C(=O)NCN3c2ccccc2)c1OC (stereo unspecified)	inconclusive: -42%
CCN(CC)CC(=O)Nc1ccc(Cl)cc1C(=O)c1ccccc1	inconclusive: -38.8%
CCOP(=O)(OCC)C(NC(=O)c1cccc(C)c1)C(Cl)(Cl)Cl (stereo unspecified)	inactive: 36.6%
CN1CCN(CCOC2c3ccccc3CSc3ccc(Cl)cc32)CC1 (stereo unspecified)	active: -87.1%
CN(C)CC#CCn1c2ccccc2c2ccccc21	inconclusive: -37%
COC(=O)C1=C(c2ccccc2OCc2ccccc2)C[C@@H]2CC[C@H]1N2C(=O)NCc1ccccc1	inactive: -20.6%
COc1ccc(CCNCc2sccc2C)cc1	inconclusive: -49%
COC(=O)C1=C(c2ccc(F)cc2OCc2ccccc2)C[C@@H]2CC[C@H]1N2C(=O)NC1CC1	inactive: -3.18%
O=c1c(C=NCCN2CCNCC2)c(O)n(C2CCCCC2)c(=O)n1C1CCCCC1	active: -60.6%
CCCCCCOc1ccc(CN2CCN(C)CC2)cc1	inconclusive: -39.8%
CC(N)Cc1c[nH]c2c1ccc1ccccc12 (stereo unspecified)	inconclusive: -49.8%
O=C(OC1CCN(CCCl)CC1)C(c1ccccc1)c1ccccc1	active: -71.2%
CCOC(=O)c1cccc(-[n+]2c(-c3ccccc3)cc(-c3ccccc3)cc2-c2ccccc2)c1	active: -66.5%
O=C(Cc1ccc(N(CCCl)CCCl)cc1)NC(Cc1ccc(Cl)cc1)C(=O)O (stereo unspecified)	inactive: 0%
COC(=O)C1=C(c2ccc(Cl)c(C(F)(F)F)c2)C[C@@H]2CC[C@H]1N2C(=O)NC1CCCCC1	active: -52.4%
NC(Cc1ccc(F)cc1)c1csc(Nc2cnccn2)n1 (stereo unspecified)	inconclusive: -40.7%
CN1CCc2cc3c(c4c2C1Cc1ccccc1-4)OCO3 (stereo unspecified)	active: -53.6%
Cc1ccc(S(=O)(=O)N(C)C)cc1NC(=O)C(C)[N+]12CCN(CC1)CC2 (stereo unspecified)	inactive: 18.2%
CCC(=O)c1cn(Cc2ccc(C#N)cc2)c2ccccc12	inactive: -14%
COC(=O)C1=C(c2ccc(F)cc2OCc2ccccc2)C[C@@H]2CC[C@H]1N2C(=O)NCc1cccc(C(F)(F)F)c1	active: -59.3%
